PubChem BioAssay AID1963576 (National Center for Advancing Translational Sciences (NCATS), 2024)
Screen size: about 46,000 compounds; about 60 (0.1%) were called active. Roughly 3% stayed inconclusive and do not appear here. Calls come from the whole dose curve; as a rule, active = well fitted inhibition curve with a large enough effect; inconclusive = small, poorly fitted or top-dose-only effect; inactive = no such curve, though single readings can be large or run the other way. Some of the results follow.

Test: Primary qHTS assay for Inhibitors of ovarian cancer metastasis using an organotypic tumor microenvironment (TME) model.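 For activity change, negative = inhibition: plate controls were DMSO wells for no effect and tomatine positive control wells for full effect.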 Note: nearly all actives have a fitted effect of over 65% in size.
Settings: SKOV3ip1-GFP adhesion/invasion on 3D omental model, fluorescence; series mostly up to 45.8 µM; activity change, negative = inhibition: at the top concentration
Summary of the method: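 Primary human omental fibroblast/mesothelial 3D culture pre-formed 48 h. SKOV3ip1-GFP cells added with compounds (0.36-46 umol/L), incubated 2 h RT/16 h 37 C, fixed; GFP cells quantified at 488/509 nm.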

| SMILES | outcome | activity change, negative = inhibition |
| --- | --- | --- |
| CCn1cc(C(=O)NCc2ccc(F)cc2)c(=O)c2cc(S(=O)(=O)N(C)C)ccc21 | inactive |  |
| Cc1ccc(OCc2nnc(-c3ccccc3)o2)cc1 |  | inactive: 1.1% |
| CC(C)CCNC(=O)c1cn(C)c2ccc(S(=O)(=O)N3CCOCC3)cc2c1=O | inactive |  |
| COc1ccccc1N1CCN(S(=O)(=O)c2ccc(-c3cnc(C4CC4)o3)cc2)CC1 | inactive |  |
| CC(=O)Nc1cccc(NC(=O)C(=O)NCCc2csc3nc(-c4ccccc4F)nn23)c1 |  | inactive: -8.43% |
| CCOC(=O)c1ccccc1NC(=O)c1nn(C)c2c1COc1ccccc1-2 |  | inactive: -5.97% |
| Cc1cc(Cl)ccc1NC(=O)c1cc2ccccn2n1 |  | inactive: -8.88% |
| Cc1ccc(CNC(=O)CSC2=Nc3ccccc3C3=NC(C)C(=O)N23)cc1 (centres undefined) |  | inactive: 2.57% |
| O=C(Nc1nc2n(n1)C(c1ccc(F)cc1)C=C(c1ccccc1)N2)c1cccc([N+](=O)[O-])c1 (centres undefined) |  | inactive: 3.92% |
| COc1c(Cl)cc(Cl)cc1CNCCSc1nnnn1C |  | inactive: 0.707% |
| CCC(C)NC(=O)CSc1nc2cc3c(cc2c(=O)n1CCCCCC(=O)NCc1ccc(OC)cc1)OCO3 (centres undefined) |  | inactive: -14.9% |
| CCOc1ccccc1NC(=O)CN1CCN(S(=O)(=O)c2ccc(Br)cc2)CC1 |  | inactive: -7.54% |
| CC(=O)c1cccc(NC(=O)c2nc(-c3ccccc3)n(-c3cccc(C)c3)n2)c1 |  | inactive: 0.523% |
| CCS(=O)(=O)N1CCc2cc(C(=O)Nc3ccc(OC)cc3OC)ccc21 |  | inactive: -18.6% |
| CCC1CCCCN1Cc1cn2c(-c3ccc(Br)cc3)nnc2s1 (centres undefined) | inactive |  |
| Cc1cc(C)c(NC(=O)Cn2c(=O)n(Cc3ccccc3)c(=O)c3c(C)c(C(=O)N(C)C)sc32)c(C)c1 |  | inactive: -1.87% |
| COc1cc(OC)c(NC(=O)c2c3c(nc4ccccc24)C(=O)N(C2CCCCC2)C3)cc1Cl |  | inactive: -5.27% |
| COc1cc2c(=O)c(S(=O)(=O)c3ccccc3)cn(CC(=O)Nc3ccccc3C)c2cc1OC |  | inactive: 0.132% |
| Cc1cccc(C(=O)Nc2cccc(OCc3cc(=O)n4ccccc4n3)c2)c1 | inactive |  |
| Cc1c(Cl)cccc1-n1nc(C)c2c(C)cc(=O)n(CC(=O)NCc3ccccc3)c21 | inactive |  |
| CCc1cccc(NC(=O)CCS(=O)(=O)c2cc3c4c(c2)CCN4C(=O)CC3)c1 | inactive |  |
| COc1cc2c(cc1OC)C(COc1ccccc1OC)N(C(=O)c1ccccc1OC)CC2 (centres undefined) |  | inactive: -1.08% |
| CCOCCCNC(=O)C(c1ccc(Cl)cc1)N(Cc1ccc2c(c1)OCO2)C(=O)c1ccccc1O (centres undefined) |  | inactive: -2.71% |
| COc1ccc(NC(=O)C(C)n2nc(C)c3c(C)n(-c4ccccc4)nc3c2=O)cc1Cl (centres undefined) |  | inactive: 3.01% |
| CC(=O)Nc1ccc(Nc2nc3ccc(C)cc3n3nnnc23)cc1 |  | inactive: -9.31% |

| SMILES | outcome | activity change, negative = inhibition |
| --- | --- | --- |
| CCOc1ccc(C(=O)N2CCN(Cc3cc(=O)n4nc(-c5cccc(OC)c5)sc4n3)CC2)cc1 |  | inactive: 4.59% |
| Cc1cccc(NC(=O)c2ccc(F)c(S(=O)(=O)N(C)C3CCCCC3)c2)c1 |  | inactive: -8.52% |
| COc1ccc(N2CCN(C(=O)c3cccn4c(=O)c5ccc(Cl)cc5nc34)CC2)cc1 | inactive |  |
| Cc1ccc(C)c(OCCCn2c(-c3ccc(Cl)cc3)nc3ccccc3c2=O)c1 |  | inactive: -1.76% |
| CCN(Cc1nc(-c2ccc(OC)cc2)oc1C)S(=O)(=O)c1ccc(Cl)cc1 | inactive |  |
| COc1ccc(-c2nc(S(=O)(=O)c3ccccc3)c(N3CCCCC3)o2)cc1 |  | inactive: 9.71% |
| Cc1ccc2oc(=O)c3cnn(CC(=O)Nc4ccc(Br)cc4C)c3c2c1 |  | inactive: 2.92% |
| Cc1ccccc1CNCCCSc1nnnn1-c1ccccc1 |  | inactive: -10.7% |
| O=C(c1ccco1)N(Cc1cccnc1)c1nc2c(F)cccc2s1 |  | inactive: 2.63% |
| Cc1cc(C)c(Cn2c(C)c(CNCc3ccccc3C)c(C(=O)O)c2C)c(C)c1 |  | inactive: -3.15% |
| CCc1ccccc1NC(=O)C(=O)c1cc(C)n(-c2ccccc2F)c1C |  | inactive: -21.3% |
| CCc1cccc(C)c1NC(=O)COCc1cc(-c2ccc3c(c2)OCO3)on1 |  | inactive: 35.1% |
| Cc1cc2c(cc1S(=O)(=O)CCC(=O)Nc1ccc(OC(F)(F)F)cc1)OCC(=O)N2 | inactive |  |
| O=C(CC1N=C2c3ccccc3N=C(SCc3ccc(Cl)cc3)N2C1=O)NC1CCCCC1 (centres undefined) | inactive |  |
| Cc1c2cnn(CC(=O)O)c(=O)c2c(C)n1Cc1cccc(Cl)c1 |  | inactive: -7.06% |
| COc1ccc(NC(=O)Nc2cccc(C)n2)c(OC)c1 | inactive |  |
| CCNc1nc2c(c(=O)n(C)c(=O)n2C)n1CC(O)COc1ccccc1 (centres undefined) |  | inactive: 0.146% |
| COC(=O)c1cc(NC(=O)c2cnc(SC)nc2-c2ccccc2)cc(C(=O)OC)c1 |  | inactive: 1.63% |
| Cc1ccc(NCc2nc3ccccc3n2CCOc2ccccc2C)cc1 |  | inactive: -3.87% |
| Nc1c(C(=O)Nc2ccccc2Cl)nnn1Cc1cccc(Cl)c1 | inactive |  |
| COc1cc(OC)cc(-c2nc3nc(C)c(CCC(=O)Nc4ccc(C)cc4)c(C)n3n2)c1 | inactive |  |
| Cc1cccc(-c2noc(CNC(=O)c3ccc(C)cc3C)n2)c1 |  | inactive: -9.73% |
| Cc1ccc(-n2ncc3c(N4CCC(C)CC4)ncnc32)cc1C | inactive |  |
| O=C(NCc1cccc(Br)c1)c1ccc(-n2cnc3cccnc32)cc1 |  | inactive: 29.5% |
